Laboratory results reported in PubChem BioAssay AID1159614 (National Center for Advancing Translational Sciences (NCATS), 2016).
In all, about 45,000 compounds went through this assay and about 65 (0.1%) were called active. Calls follow the shape of the dose curve; as a rule, active = well fitted activation curve with a large enough effect; inconclusive = small, poorly fitted or top-dose-only effect; inactive = no such curve, though single readings can be large or run the other way. This is one part of the list.

Target: Galactocerebrosidase (Homo sapiens) (UniProt P54803)
UniProt P54803, sequence (P54803 whole entry, looked up): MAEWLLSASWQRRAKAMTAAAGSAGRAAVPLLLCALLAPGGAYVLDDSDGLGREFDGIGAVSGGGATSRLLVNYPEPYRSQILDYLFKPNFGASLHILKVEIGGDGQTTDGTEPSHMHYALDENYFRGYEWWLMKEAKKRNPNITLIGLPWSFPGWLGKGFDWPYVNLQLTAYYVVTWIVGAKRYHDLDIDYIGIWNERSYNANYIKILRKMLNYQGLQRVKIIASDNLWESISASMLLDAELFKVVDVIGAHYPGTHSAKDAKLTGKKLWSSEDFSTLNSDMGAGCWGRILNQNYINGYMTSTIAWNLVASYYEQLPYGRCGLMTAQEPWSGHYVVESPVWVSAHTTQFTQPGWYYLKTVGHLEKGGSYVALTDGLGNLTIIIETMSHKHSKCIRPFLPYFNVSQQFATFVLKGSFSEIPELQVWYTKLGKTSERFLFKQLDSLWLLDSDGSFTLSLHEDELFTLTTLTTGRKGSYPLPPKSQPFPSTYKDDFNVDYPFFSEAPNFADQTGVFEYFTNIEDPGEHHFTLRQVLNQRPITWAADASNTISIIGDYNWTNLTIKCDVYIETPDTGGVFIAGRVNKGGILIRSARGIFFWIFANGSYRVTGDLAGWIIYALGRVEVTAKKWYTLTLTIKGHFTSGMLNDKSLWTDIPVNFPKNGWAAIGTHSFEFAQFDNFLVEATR
Test: A Novel Cell-Based Assay to Identify Small Molecules for B -Galactocerebrosidase; also: 0% is about no effect; nearly all actives have a fitted effect of over 65% in size
Settings: 145M-Twi-hGALC-G270D cells (Twitcher mouse brain line with human GALC G270D), HMU-beta-Gal fluorescence, 48 h; series mostly up to 57.5 µM; activation: at the top concentration
How it was run: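 Fluorogenic HMU-b-Gal hydrolysis (0.1 mM final, pH 5.2 citrate-phosphate with 1 mg/mL sodium taurocholate; carbonate stop buffer) measures mutant GALC activity after compound treatment of live 145M-Twi Twitcher brain cells stably carrying human GALC-G270D, with wild-type GALC line alongside; activation sought.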

activation, inactive:
Cc1cc(C)c2c(CC(=O)Nc3c(C(=O)Nc4ccc(Cl)cc4)oc4ccccc34)coc2c1 -24.7%
COc1ccc(CNC(=O)CN2C(=O)c3cccnc3Oc3ccc(C)cc32)cc1 0.615%
Cc1cc(OCC(=O)N(Cc2sccc2C)C2CCS(=O)(=O)C2)ccc1Cl (stereo not given) -14.9%
COc1ccc(Nc2cc(C(=O)NCc3ccccc3OC)c3ccccc3n2)cc1 -14.8%
Cc1cc(Nc2cccc(Cl)c2)nc2ccc(NC(=O)c3cccnc3)cc12 -13.8%
CCCSCCCNC(=O)c1ccc2nc(Cc3ccccc3)oc2c1 -7.48%
CCSc1ncc(Cl)c(C(=O)Nc2ccc(S(=O)(=O)N(C)c3ccccc3)cc2)n1 -18.3%
O=C(NCCc1ccccc1)c1cnn(-c2ccc(F)cc2)c1-n1cccc1 -12.3%
CCOC(=O)N1CCc2c(sc3c2c(=O)n(CCc2ccccc2)c(=O)n3Cc2c(F)cccc2Cl)C1 -5.05%
CCc1ccc(CNC(=O)CN2CCSc3ccccc32)cc1 -24.4%
Cc1ccc(NC(=O)C(=O)NCC2(c3ccccc3)CCCC2)cc1Cl -12.2%
O=C(CN1C(=O)COc2ccc(S(=O)(=O)N3CCCCCC3)cc21)NCc1ccc(F)cc1 -4.45%
Cc1ccc(NC(=O)CSc2nc3n[nH]c(C)c3c(=N)n2-c2cccc(C)c2)cc1 -4.01%
Cn1c(=O)oc2cc(S(=O)(=O)Nc3ccc(C(=O)O)cc3)ccc21 -19.1%
CCC(=O)N1CCc2cc(Br)cc(S(=O)(=O)N3CCCC(C(=O)N(C)c4ccc(Br)cc4)C3)c21 (stereo not given) -3.3%
Cc1cc(C)cc(OCC(=O)Nc2ccc(-c3nc4ccccc4o3)cc2)c1 -9.07%
Cc1cc(C)c2c(CC(=O)N(Cc3ccccc3)C3CCS(=O)(=O)C3)coc2c1 (stereo not given) -8.79%
CCC(=O)N1CCc2cc(S(=O)(=O)NC(C(=O)Nc3ccc(C(C)=O)cc3)C(C)C)ccc21 (stereo not given) -17.5%
COc1ccccc1CNC(=O)c1ccc(-c2nc(CN3CCc4ccccc43)c(C)o2)cc1 -37.6%
COc1ccc(NC(=O)c2cccn2-c2nnc(N3CCCCC3)s2)cc1 -11.1%
Cc1ccc(Cl)cc1N1CCN(c2ncnc3onc(C)c23)CC1 -27.6%
CCOC(=O)C1CCCN(c2nc3c(S(=O)(=O)c4ccc(C)c(C)c4)nnn3c3ccc(Cl)cc23)C1 (stereo not given) 11.5%
CCn1c(=O)c2sccc2n2c(CCC(=O)Nc3cc(C)cc(C)c3)nnc12 -8.4%
COc1cccc(C(=O)Nc2cc3c(cc2C(=O)c2ccc(C)cc2)OCCO3)c1 -17.1%
COc1ccc(-c2nc(CS(=O)CC(=O)NCc3ccccc3OC)c(C)o2)cc1 (stereo not given) -14.8%
Clc1ccc(N2CCN(c3ncnc4c3nc3n4CCCC3)CC2)cc1 -22.5%
COc1cccc(N2CCN(C(=O)C3CCN(S(=O)(=O)c4ccc5c(c4)oc(=O)n5C)CC3)CC2)c1 -10.9%
COc1ccc2c(c1)CC(C(=O)NCCCN1CCN(c3ccc(F)cc3)CC1)CO2 (stereo not given) -0.833%
CCOC(=O)c1ccc(N2C(=O)c3n[nH]c(-c4cccs4)c3C2c2ccc(C(C)(C)C)cc2)cc1 (stereo not given) -21.1%
O=C(Nc1nc2n(n1)C(c1ccccc1)C=C(c1ccccc1)N2)c1ccc(Cl)c([N+](=O)[O-])c1 (stereo not given) -19.5%
CCOc1ccccc1NC(=O)Cn1c(=O)n(Cc2ccccc2)c(=O)c2c(C)c(C)sc21 -17.8%
CCc1cccc(NC(=O)Cn2nc(-c3ccc(OC)cc3)ccc2=O)c1 -15.3%
CCC(C)NC(=O)Cn1ncc2c([nH]c3ccc(C)cc32)c1=O (stereo not given) -5.89%
COc1cccc(-c2ccc3c(N)c(C(=O)c4ccc(Cl)cc4)sc3n2)c1 -9.51%
Cc1cccc(C)c1Nc1sc(C(=O)c2ccccc2)c(N)c1C(=O)Nc1ccc(F)cc1 -18.9%
CC(C)OCCCNC(=O)c1cc2c(-c3ccc(Cl)cc3)nn(C)c2s1 3.38%
CCCCC(Sc1nc2cc3c(cc2c(=O)n1CCCC(=O)NCc1ccc(OC)cc1)OCO3)C(=O)OCC (stereo not given) -11.3%
COc1cc(NC(=O)C2CCCN(S(=O)(=O)c3ccc4c(c3)oc(=O)n4C)C2)c(C(=O)O)cc1OC (stereo not given) -15.7%
Cc1ccc(NC(=O)c2c(C)oc3ccc(O)c(CN4CCCCCC4)c23)c(C)c1 -14.3%
CCOC(=O)c1[nH]c(C)c(CCC(=O)NCc2ccc(OCC)cc2)c1C -11.6%
O=C(NCc1ccccc1F)c1ccc(CN2CC(=O)N3CCCCC3C2=O)cc1 (stereo not given) -12.4%
Cc1cc(C)c(NC(=O)Cn2c(=O)n(Cc3ccc4c(c3)OCO4)c(=O)c3ccc(C(=O)NC4CCCCC4)cc32)c(C)c1 -14.7%
CCc1ccc(NC(=O)C(=O)NCCc2csc(-c3ccc(C(F)(F)F)cc3)n2)cc1 -1.1%
CCOC(=O)c1sc2cccc(F)c2c1S(=O)(=O)N1CCN(c2cccc(Cl)c2)CC1 -2.55%
CCc1ccc(CNC(=O)c2cnc3sc4cc(OC)ccc4n3c2=O)cc1 -9.07%
CCCn1c2ccccc2c2cnn(CC(=O)N3CCC(C)CC3)c(=O)c21 -11.5%
COc1cccc(C(=O)N2c3cc(C)ccc3C(C)(c3ccccc3)CC2(C)C)c1 (stereo not given) -19.2%
N#C/C(=C\c1ccc(Cl)cc1)c1nc(-c2cc3ccccc3oc2=O)cs1 -8.42%
COc1ccccc1NC(=O)c1cc2c(=O)oc3ccc(C)cc3c2s1 -24.2%
O=C(O)CSc1c2c(nc3cc(C(=O)Nc4ccc(F)c(Cl)c4)ccc13)CCC2 -6.41%
CCCCOc1ccccc1C(=O)N(Cc1ccc(C)o1)C1CCS(=O)(=O)C1 (stereo not given) -13.4%
Cc1ccc(NC(=O)CSc2nc3c(oc4ccccc43)c(=O)n2-c2ccc(F)cc2)c(C)c1 -8.5%
CC(C)C(=O)c1c(C(C)C)nn2ccccc12 -12.4%
COc1ccc(Nc2ncc3c(n2)CCN(Cc2cc(Br)cs2)C3)c(OC)c1 -13.8%
COc1ccc(CNC(=O)c2ccc3c(c2)nc2n3CCC(C)C2)c(OC)c1 (stereo not given) -26.5%
COCCNC(=O)CSc1nc2cc3c(cc2c(=O)n1CCCCCC(=O)NCc1ccc(OC)cc1)OCO3 -25.2%
CC(C)c1ccc(S(=O)(=O)NCc2ccc3c(c2)CCN3C(=O)c2ccccc2)cc1 11.3%
CCOc1ccccc1NC(=O)Cn1nnc2sc(-c3ccccc3)cc2c1=O -0.567%
COc1ccc2cc(-c3nc4ccc(C(=O)O)cc4[nH]3)c(=O)oc2c1 -16.2%
C=Cc1ccc(Cn2nc(-c3ccc(C)c(S(=O)(=O)N(CC)CC)c3)ccc2=O)cc1 -9.18%
Cn1nc(-c2ccc(C(=O)Nc3ccc(F)cc3)cc2)c2ccccc2c1=O 6.96%
COCCCNC(=O)CCCCn1c(=O)c2ccccc2n(CC(=O)Nc2ccc(C)cc2C)c1=O -3.01%
Cc1cccn2c(=O)c3cc(C#N)c(=O)n(-c4nnc(SCc5ccccc5F)s4)c3nc12 -9.73%
CC(C(=O)NCc1ccccc1F)n1ccc2cc(S(=O)(=O)N3CCCC3)ccc21 (stereo not given) -2.08%
COc1ccc(Br)cc1C(=O)Nc1nc2ccc(F)cc2s1 -5.74%
CCc1ccccc1NC(=O)Nc1cc(C(=O)NCc2ccc(C)cc2)ccc1N1CCCC1 -9.39%
CCOc1ccccc1NC(=O)c1c(NC(=O)c2cccc(C)c2)sc2c1CCCC2 -7%
C[C@H]1[C@H]2CC[C@H]3[C@@H]4CC=C5C[C@@H](N(C)C)CC[C@]5(C)[C@H]4CC[C@]23CN1C -4.52%
O=c1c(S(=O)(=O)c2ccccc2)cn(Cc2ccccc2)c2cc(N3CCOCC3)c(F)cc12 -9.29%
O=C(Nc1ccc(C(F)(F)F)cc1)C1CCCN(c2cnccn2)C1 (stereo not given) 3.42%
O=C(Nc1ccccc1Cl)N1CCC(CN2CCCCC2)CC1 -16.6%
CC1CN(C(=O)Nc2ccc(C(=O)NCc3cccc(F)c3)cc2)c2ccccc2S1 (stereo not given) -6.35%
Cc1nn(-c2nc(-c3ccc(F)cc3)cc(C(F)(F)F)n2)c(C)c1Br -14.5%
COc1cccc(C(=O)Nc2ccccc2C(=O)OCc2cc(=O)n3c(C)csc3n2)c1 -2.43%
COc1ccc(NC(=O)Cn2c(C)cc3ccccc3c2=O)c(OC)c1 0.233%
COC(=O)c1cc(C)nc2c1c(=O)nc(SCc1cccc(C)c1)n2C1CC1 -12.6%
CC1=Nc2cc(C(=O)NC3CCCC3)ccc2Sc2ccc(C)cc21 -20.9%
CC(=O)c1ccc(NC(=O)CC2Nc3cccc4cccc(c34)NC2=O)cc1 (stereo not given) -14.6%
CCc1cccc(CC)c1NC(=O)c1ccc2c(c1)CCN2S(=O)(=O)c1ccccc1 -11.9%
COc1ccccc1OCC(=O)N(Cc1ccc(Cl)cc1)CC1CCCO1 (stereo not given) -10.6%
CSc1ccc(CCNC(=O)CCCn2nc(C)c3sc4ccccc4c3c2=O)cc1 7.93%
Cc1cccc(NC(=O)CN2C(=O)c3cccnc3Oc3ccc(Cl)cc32)c1C -8.32%
Cc1nn(-c2ccc(F)cc2)c(-n2cccc2)c1C(=O)NCCCN1CCN(c2ccccc2F)CC1 0.742%
CCOC(=O)c1ccccc1NC(=O)Nc1cc2c(cc1N1CCCCC1)n(C)c(=O)n2C -8.14%
CCOc1ccc(CNC(=O)CCS(=O)(=O)c2cc3c(cc2Cl)NC(=O)CO3)cc1OC -12.8%
CCOc1ccc(Oc2nc(NCC(C)C)nc(NC(C)(C)C)n2)nn1 -8.69%
O=C(Nc1ccc(N2CCC(c3ccccc3)C2)c(C(=O)O)c1)c1ccc(Cl)cc1 (stereo not given) -10.4%
COc1cccc(NC(=O)CCc2c(C)nc3c4cccnc4nn3c2C)c1 -17.3%
COCCCNC(=O)CN1C(=O)COc2ccc(S(=O)(=O)N3CCCC3)cc21 -8.49%
COc1ccc(C(=O)NCCn2cc(SCC(=O)NCCc3ccc(OC)c(OC)c3)c3ccccc32)cc1 -9.77%
COc1cccc(NC(=O)Cn2cnc3c(nc4n3CCCCC4)c2=O)c1 -11%
Cc1n[nH]c(C)c1S(=O)(=O)N(CC(=O)NC(C)c1ccccc1)c1ccc(C(C)C)cc1 (stereo not given) -0.69%
Cc1ccc(NC(=O)Cn2c(=O)c3cc(Cl)ccc3n3nncc23)cc1 -12.4%
COCCCNc1ncnc2onc(-c3ccc(F)cc3)c12 -9.71%
COC(=O)CS(=O)(=O)c1nc2ccccc2nc1N1CCCCC1 -8.54%
